Laboratory results as given in the supplement of paper PMC10338343.
± gives the standard deviation. Whole data set: some 3,700 sequences, median “pre-steady-state target cleavage rate” near 0.02, cut for the highest 2% near 0.23. The list shows a part of the results, in another mix than the full data.

tested on: MILI (PIWIL2) piRISC loaded with Kctd7 piRNA (26 nt); experiment: pre-steady-state target cleavage rate (min^-1); MIWI and MILI are mouse PIWI proteins and EfPiwi is from a freshwater sponge; tags in brackets are library labels; higher = faster piRNA-guided slicing of the target; conditions: guide: Kctd7 piRNA 5'p-UGUUAAUCUCUCAGAGAAGGUGACAG; auxiliary factor: 500 nM mouse GTSF1
How it was run: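 A burst-and-steady-state fit was used to obtain the pre-steady-state cleavage rate. The input data were sequencing reads of uncleaved targets, normalised to depth and to weakly complementary targets, from a […] transcribed, DNA-blocked target RNA library mixed with 1 nM active affinity-purified piRISC holding one synthetic guide, with or without 500 nM GTSF1 partner protein, in HEPES–potassium acetate buffer at 33 °C for 0–8 or 0–960 min. Three trials were pooled and k3 was capped at 0.0001 min^-1.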
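Note: 1 nM active piRISC with 0.1 nM target library at 33 °C single turnover.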

| Sequence | pre-steady-state target cleavage rate |
| --- | --- |
| UAGUGUGUCACCUUCUCUGACAGAUUAUCA | 0.00637 ± 0.0042 |
| UAGUGACAGUGGAAGACUGAGAGAUUCACA | < 0.0001 |
| UAGUCUGUCACCUUGUCUCAGAGAUUAACA | 0.0236 ± 0.0053 |
| UAGUGACUCACCUACUCUGACAGAUUAACA | 0.019 ± 0.004 |
| UAGUGACACACCUUAUCUGAGAGAUUAACA | 0.136 ± 0.016 |
| UAGUGUGUCACCUUCUCUGAGAGAUUGAACA | 0.0931 ± 0.017 |
| UAGUGAGUCACCUUCUCACUGAGAUUAACA | 0.0178 ± 0.005 |
| UAGUGUGUGACCUUCUCUGAGAGUUUAACA | 0.0738 ± 0.021 |
| UAGUGUGUGUGCUUCUCUGAGAGAUUAACA | 0.0406 ± 0.011 |
| UAGUCUGUCACCUUCUCUGUGAGAUUAUCA | 0.0478 ± 0.013 |
| UAGUGUCUCACCUUCUCUCAGAGAUUAACA | 0.0446 ± 0.0082 |
| UAGUGACAGACCUUCUCGGAGAGAUUAACA | 0.0232 ± 0.0053 |
| UAGUGACAGACCUUCUCUGAGAUAUUAACA | 0.0283 ± 0.011 |
| UAGUGACACACCAUCUCUGAGAGAUUAACA | 0.0968 ± 0.007 |
| UAGUGAGUGACCUUCUCUGAGAGAUUAUGA | 0.0378 ± 0.011 |
| UAGUCUGUCACCUUCUCUGAGAGAUAAUCA | 0.036 ± 0.015 |
| UAGUCUGUCACCUUCUCUGAGCGAUUAACA | 0.0346 ± 0.0084 |
| UAGUGACAGUCCUUCUCUGAGAGAUUGAACA | 0.098 ± 0.014 |
| UAGUCUGACACCUUCUCUCAGAGAUUAACA | 0.0446 ± 0.0048 |
| UAGUGACAGUCCUUCUCUGAGAAAUUAACA | 0.0337 ± 0.0068 |
| UAGUGACAGUGGAUCUCUGACAGAUUAACA | < 0.0001 |
| UAGUGACUCACCUUUCUCUGAGAGAUUAACA | 0.116 ± 0.0091 |
| UAGUGACUCUGCUUCUCUGAGAGAUUAACA | 0.0483 ± 0.0055 |

| Sequence | pre-steady-state target cleavage rate |
| --- | --- |
| UAGUGACAGACCUUCUCACAGAGAUUAACA | 0.00899 ± 0.005 |
| UAGUGAGUCACCUUCUCUGAAGAUUAACA | 0.00551 ± 0.0033 |
| UAGUGUGUCACCUUCUCUGAGAGAUAAACA | 0.148 ± 0.029 |
| UAGUGUGUCACCUUCACUGAGAGAUAAACA | 0.0773 ± 0.02 |
| UAGUGACAGUGGAAGUCUGAGAGAUUACACA | < 0.0001 |
| UAGUCAGUCACCAUCUCUGAGAGAUUAACA | 0.171 ± 0.0086 |
| UAGUGACAGACCUUCUCUGGGAGAUUAACA | 0.104 ± 0.013 |
| UAGUCUGUCACCAUCUGUGAGAGAUUAACA | 0.0515 ± 0.0056 |
| UAGUGACUCACCUUCUCUGAGACAUAAACA | 0.00436 ± 0.0035 |
| UAGUGACAGUGGUUCUCUGAGACAAUAACA | < 0.0001 |
| UAGUGACACACCUUCUCCGAGAGAUUAACA | 0.133 ± 0.035 |
| UAGUGAGUCACCUUCUCUGAGAGAUAAACA | 0.249 ± 0.052 |
| UAGUCUGAGACCUUCUCUGAGAGAUUAACA | 0.123 ± 0.0076 |
| UAGUGACACACCUUCUGUGAGAGAUUAUCA | 0.0112 ± 0.0058 |
| UAGUCUGUCACCUUCUCUGAGAGAUUGAACA | 0.214 ± 0.029 |
| UAGUGAGUCACCUUCAGAGAGAGAUUAACA | 0.0146 ± 0.0059 |
| UAGUGACAGUGCAUCUGUGAGAGAUUAACA | 0.00711 ± 0.0027 |
| UAGUGACAGUCCUUCUCUGAGAGAUAUAACA | 0.0573 ± 0.0087 |
| UAGUGACACACCUUCUCUGUGAGAUUAACA | 0.0505 ± 0.0056 |
| UAGUGAGUCACCUUCUCUGUGAGAUUAACA | 0.0632 ± 0.0071 |
| UAGUGACAGUGCUUUUCUGAGAGAUUAACA | 0.0398 ± 0.0063 |
| UAGUGACUACCUUCUCUGAGAGAUUAACA | 0.105 ± 0.0079 |
| UAGUGACUCUCCUUCUCAGAGAGAUUAACA | 0.0459 ± 0.0049 |

| Sequence | pre-steady-state target cleavage rate |
| --- | --- |
| UAGUGAGUCGCCUUCUCUGAGAGAUUAACA | 0.193 ± 0.021 |
| UAGUGACAGUGCUUCUCUCAGAGUUUAACA | 0.00367 ± 0.0028 |
| UAGUCUGUCACCUUCUCUGAGAGAUUAAUA | 0.118 ± 0.02 |
| UAGUGACAGACCUUGUCUGAGAGAUAAACA | 0.0053 ± 0.0042 |
| UAGUGACACACCUUCUCUGAGAGAUUAUCA | 0.121 ± 0.016 |
| UAGUCUGUCUCCUUGUCUGAGAGAUUAACA | 0.0885 ± 0.012 |
| UAGUGAGUCACCUUCUCUGAGAGAUUGACA | 0.208 ± 0.042 |
| UAGUGACUGACCUUCACUGAGAGAUUAACA | 0.129 ± 0.02 |
| UAGUGACAGUCCUUGACUGAGAGAUUAACA | 0.012 ± 0.0034 |
| UAGUGUGUCACCAACUCUGAGAGAUUAAGA | 0.0761 ± 0.016 |
| UAGUGACAGUCCAUCUCUGAGACAUUAACA | 0.00298 ± 0.0025 |
| UAGUCUGUGACCUUCUCUGAGAGAUUAUGA | 0.0293 ± 0.0083 |
| UAGUGUGUCACCUUCUCUGAGAGAAAAACA | 0.0632 ± 0.024 |
| UAGUCAGUCACCUUGUCUGAGAGAUUAACA | 0.109 ± 0.018 |
| UAGUGUGUCACCUUCUCAGAGAGAUUAUCA | 0.092 ± 0.022 |
| UAGUGUGUCACCUUCUCUGAGGGAUUAACA | 0.077 ± 0.0082 |
| UAGUGUGUCACCUUUUCUGAGAGAUUAACA | 0.249 ± 0.02 |
| UAGUGACUCAGCUUCUCUGACAGAUUAACA | 0.0133 ± 0.0041 |
| UAGUGACAGUGGAUCUCUCACAGAUUAACA | < 0.0001 |
| UAGUGACAGUCCUUGUCUGACAGAUUAACA | 0.018 ± 0.0051 |
| UAGUGACACUGCUUCUCUGAGAGAUUAACA | 0.0787 ± 0.0078 |
| UAGUCUGUCUCCUUCUCUGAGAGAUUAAGA | 0.054 ± 0.012 |
| UAGUGACAGUGCUUUCUCUGAGAGAUUAACA | 0.0826 ± 0.0083 |

| Sequence | pre-steady-state target cleavage rate |
| --- | --- |
| UAGUGAGUCUCCUUGUCUGAGAGAUUAACA | 0.0445 ± 0.011 |
| UAGUCUGUCACCUUCUCUGCGAGAUUAACA | 0.109 ± 0.015 |
| UAGUGUGUCACCUUCUCUGACAGAUUAACA | 0.073 ± 0.008 |
| UAGUGAGACACCUUCUCUGAGUGAUUAACA | 0.0036 ± 0.0027 |
| UAGUGUGUCACCUUCUUUGAGAGAUUAACA | 0.229 ± 0.016 |
| UAGUGAGUGUGCUUCUCUGAGAGAUUAAGA | 0.0112 ± 0.0028 |
| UAGUGUGUCACCUUCAGUGAGAGAUUAUGA | 0.00477 ± 0.0036 |
| UAGUCUGUGACCUUCUCAGAGAGAUUAACA | 0.0991 ± 0.0093 |
| UAGUGUGUCACCAACUCUGAGAGAUUAUGA | 0.022 ± 0.0072 |
| UAGUGACUCACCUUCUGUGAGAGAUAAACA | 0.0306 ± 0.0065 |
| UAGUCUGUCACCUUCUCUCAGAGAUUAAGA | 0.00947 ± 0.0051 |
| UAGUGUGUCACCUUCUCUGAGAGAUUAAACA | 0.214 ± 0.029 |
| UAGUGUGUCACCUAGACUGAGAGAUUAACA | 0.0513 ± 0.0065 |
| UAGUGACACACCAUCUCUGAGAGAUUUACA | 0.0898 ± 0.017 |
| UAGUGUGUCAGCUUCUCUGAGAGAUUAUCA | 0.108 ± 0.016 |
| UAGUCUGUCACCUUCACUGAGAGAUUAACA | 0.14 ± 0.012 |
| UAGUGACUCACCUUCUCUGUGAGAUUAUCA | 0.00767 ± 0.005 |
| UAGUGACUCACCAUCUCAGAGAGAUUAACA | 0.0451 ± 0.0063 |
| UAGUGACACACCUACUCUGAGAGAUUUACA | 0.0755 ± 0.018 |
| UAGUGACUCACCUUCUCUGACAGUUUAACA | 0.0236 ± 0.008 |
| UAGUCUGAGUCCUUCUCUGAGAGAUUUUGA | 0.00489 ± 0.0029 |
| UAGUGUGUCACCUUCUCAGAGAGUUUAACA | 0.143 ± 0.041 |
| UAGUGACACACCUUCUCUGAGAGAUUAUACA | 0.108 ± 0.032 |
